Measured values published in US20220125947A1 (published 2022).
Each block holds one binder with its values, some of them ahead of it.

How the values were obtained:
[1] = target: T1, TCR gamma/delta constant region (TRGDC) (human, UniProt P0CF51 1-173; B7Z8K6 1-153); test: cell-based or functional assay
T1 chain (looked up) 1: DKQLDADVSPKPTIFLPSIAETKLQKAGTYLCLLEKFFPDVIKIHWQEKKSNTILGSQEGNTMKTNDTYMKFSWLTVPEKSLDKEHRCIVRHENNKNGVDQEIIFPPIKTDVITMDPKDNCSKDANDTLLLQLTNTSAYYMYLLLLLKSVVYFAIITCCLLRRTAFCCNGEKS
T1 chain (looked up) 2: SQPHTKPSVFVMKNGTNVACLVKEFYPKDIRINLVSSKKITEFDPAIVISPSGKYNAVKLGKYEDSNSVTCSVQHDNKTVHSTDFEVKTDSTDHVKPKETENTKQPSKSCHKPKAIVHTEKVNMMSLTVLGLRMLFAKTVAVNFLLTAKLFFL

[2] = target: T2, T cell receptor (TCR) Vγ9 (TRGV9) (human, UniProt Q99603 21-122); test: cell-based or functional assay
T2 chain (looked up): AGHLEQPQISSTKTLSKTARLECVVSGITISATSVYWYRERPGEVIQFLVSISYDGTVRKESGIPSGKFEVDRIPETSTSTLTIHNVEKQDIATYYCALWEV

[3] = target: T3, γδ T cell receptor on human γδ T cells (human); test: flow cytometry, dose-response binding at 37 C on human γδ T cells
T3 construct: also called AG000003021 (γδ T cells)
Description: (§1) Binding of antibodies to human γδ T cells or SKW cell lines expressing Vγ9/Vδ2, Vγ9/Vδ2 or Vγ5/Vδ2 was carried out by flow cytometry. Briefly, the cells were centrifuged at 300×g for 5 minutes and the pellet was resuspended in 34 ml fresh media (in RPMI+10% FBS). 50 μL of the cells were then plated (44K cells/well) into assay plates. Samples were incubated for one hour at 37° C. in tissue culture (TC) incubator followed by wash steps by adding 100 μl FACS staining buffer. Secondary detention antibodies (A647 conjugated anti-human IgG Fc specific antibody (2 μg/mL) along with AF488 anti mouse CD3, clone OKT3 at 1 ug/mL) were added at 50 μL/well to appropriate wells according to the plate map. After incubating for 60 minutes at 37° C. in the TC incubator, cells were again washed as described above. This is followed by resuspension in 20 μL/well running buffer containing 1:1000 dilution of Sytox blue dead cell stain and the plates were run on iQue Screener.
Gating and data analysis: Human anti-human Vγ9 antibody (VG9B2 mAb at 10 nM) was used to mark the gating of positive population. All cells were first gated for singlets on SCS-A vs. SCS-H dot plot, live/dead followed by CD3 positive population, and this subset of CD3 positive population was gated for Vγ9 positive binding using positive control mAb. Cells were also assessed for cell binding of control mAbs by RL1 (A647) Geomeans from the live cell population. Advanced metrics were used and normalization metrics were chosen to calculate fold over background wells containing secondary antibody alone (designated as ‘background’ within ForeCyt settings).

[4] = target: T4, T cell receptor (TCR) Vγ9 (TRGV9) (human, UniProt Q99603 21-122); test: cell-based or functional assay; remark: listed apart in the source
T4 sequence (looked up): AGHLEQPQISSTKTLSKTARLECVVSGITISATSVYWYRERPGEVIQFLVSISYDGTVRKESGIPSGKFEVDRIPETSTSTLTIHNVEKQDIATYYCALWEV

[5] = target: γδ T cell receptor on human γδ T cells (AG000003021) (human); test: flow cytometry, DRC binding at 37°C on human γδ T cells
Description: as §1
Gating and data analysis: Human anti-human Vγ9 antibody (VG9B2 mAb at 10 nM) was used to mark the gating of positive population. […] Cells were also assessed for cell binding of control mAbs by RL1 (A647) Geomeans from the live cell population. […]

B1: VG9B371 (antibody, human IgG1, kappa)
heavy: EVQLLESGGGLVKPGGSLRLSCAASRFTLSSYDMNWVRQAPGKGLEWVSSISSSSSYIYYADSVKGRFTISRDNAKNSLYLQMNSLRAEDTAVYYCARDRGVGGTDYYYYGLDVWGQGTTVTVSS[human IgG1 constant region omitted here]
light: [about 100 residues omitted here][about 100 residues omitted here]
CD25+ (Vg9+ cells), flow staining [1]: 42.3%
CD71+ (Vg9+ cells), flow staining [1]: 98.4%
Granzyme B; Luninex (supernatant) [1]: 7480
IFNγ; Luninex (supernatant) [1]: 4830
IL6; Luninex (supernatant) [1]: 1560
TNFα; Luninex (supernatant) [1]: 4100
Vg9 T cell %, flow staining [1]: 8.2%

B2: VG9B423 (antibody, human IgG1, kappa)
heavy: EVQLVESGGGLVKPGGSLRLSCSASGFTFSNYDMNWVRQAPGKGLEWVSSISSSSSYIYYADSVKGRFTISRDNAKNSLYLQMNSLRAEDTAVYHCARDVGVTTDYYYYGMDVWGQGTMVTVSS[human IgG1 constant region omitted here]
light: ETTLTQSPGTLSLSPGDRATLSCRASQSVASSYLAWYQQKPGQSPRLLIYGASSRATGIPDRFSGSGSGTDFTLTISRLEPEDFAVYYCQQYGSSPPYTFGQGTKVEIKRTVAAPSVFIFPPSDEQLKSGTASVVCLLNNFYPREAKVQWKVDNALQSGNSQESVTEQDSKDSTYSLSSTLTLSKADYEKHKVYACEVTHQGLSSPVTKSFNRGEC
CD25+ (Vg9+ cells), flow staining [2]: 40.3%
CD71+ (Vg9+ cells), flow staining [2]: 98.9%
Granzyme B, Luminex (supernatant) [2]: 3380
IFNγ, Luminex (supernatant) [2]: 1430
IL6, Luminex (supernatant) [2]: 590
TNFα, Luminex (supernatant) [2]: 229
Vg9 T cell %, flow staining [2]: 13.9%

B3: VG9B423 (antibody, human IgG1, kappa)
heavy: EVQLVESGGGLVKPGGSLRLSCSASGFTFSNYDMNWVRQAPGKGLEWVSSISSSSSYIYYADSVKGRFTISRDNAKNSLYLQMNSLRAEDTAVYHCARDVGVTTDYYYYGMDVWGQGTMVTVSS[human IgG1 constant region omitted here]
light: ETTLTQSPGTLSLSPGDRATLSCRASQSVASSYLAWYQQKPGQSPRLLIYGASSRATGIPDRFSGSGSGTDFTLTISRLEPEDFAVYYCQQYGSSPPYTFGQGTKVEIKRTVAAPSVFIFPPSDEQLKSGTASVVCLLNNFYPREAKVQWKVDNALQSGNSQESVTEQDSKDSTYSLSSTLTLSKADYEKHKVYACEVTHQGLSSPVTKSFNRGEC
notes: IgG1, kappa; also called antibody #20
Max. Activity [3]: 2960 fold over background

B5: VG9B415 (antibody, human IgG1, kappa)
heavy: EVQLVESGGGLVKPGGSLRLSCSASGFTFSNYDMNWVRQAPGKGLEWVSSISSSSSYIYYADSVKGRFTISRDNAKNSLYLQMNSLRAEDTAVYHCARDVGVTTDYYYYGMDVWGQGTTVTVSS[human IgG1 constant region omitted here]
light: ETTLTQSPGTLSLSPGDRATLSCRASQSVASSYLAWYQQKPGQSPRLLIYGASSRATGIPDRFSGSGSGTDFTLTISRLEPEDFAVYYCQQYGSSPPYTFGQGTKLEIKRTVAAPSVFIFPPSDEQLKSGTASVVCLLNNFYPREAKVQWKVDNALQSGNSQESVTEQDSKDSTYSLSSTLTLSKADYEKHKVYACEVTHQGLSSPVTKSFNRGEC
CD25+ (Vg9+ cells), flow staining [2]: 31.5%
CD71+ (Vg9+ cells), flow staining [2]: 96.9%
Granzyme B, Luminex (supernatant) [2]: 5160
IFNγ, Luminex (supernatant) [2]: 1210
IL6, Luminex (supernatant) [2]: 403
TNFα, Luminex (supernatant) [2]: 193
Vg9 T cell %, flow staining [2]: 5.3%

B9: VG9B424 (antibody, human IgG1, kappa)
heavy: EVQLVESGGGLVKPGGSLRLSCSASGFTFSNYDMNWVRQAPGKGLEWVSSISSSSSYIYYADSVKGRFTISRDNAKNSLYLQMNSLRAEDTAVYHCARDVGVTTDYYYYGMDVWGQGTMVTVSS[human IgG1 constant region omitted here]
light: ETTLTQSPGTLSLSPGDRATLSCRASQSVASSYLAWYQQKPGQSPRLLIYGASSRATGIPDRFSGSGSGTDFTLTISRLEPEDFAVYYCQQYGSSPPYTFGQGTKLEIKRTVAAPSVFIFPPSDEQLKSGTASVVCLLNNFYPREAKVQWKVDNALQSGNSQESVTEQDSKDSTYSLSSTLTLSKADYEKHKVYACEVTHQGLSSPVTKSFNRGEC
notes: IgG1, kappa; also called antibody #25
Max. Activity [3]: 2780 fold over background

B10: VG9B399 (antibody, human IgG1, kappa)
heavy: EVQLVESGGGLVKPGGSLRLSCSASGFTFSNYDMNWVRQAPGKGLEWVSSISSSSSYIYYADSVKGRFTISRDNAKNSLYLQMNSLRAEDTAVYHCARDVGVTTDYYYYGMDVWGQGTMVTVSS[human IgG1 constant region omitted here]
light: ETTLTQSPGTLSLSPGDRATLSCRASQSVASSYLAWYQQKPGQSPRLLIYGASSRATGIPDRFSGSGSGTDFTLTISRLEPEDFAVYYCQQYGSSPPYTFGQGTKVDIKRTVAAPSVFIFPPSDEQLKSGTASVVCLLNNFYPREAKVQWKVDNALQSGNSQESVTEQDSKDSTYSLSSTLTLSKADYEKHKVYACEVTHQGLSSPVTKSFNRGEC
CD25+ (Vg9+ cells), flow staining [1]: 36.8%
CD71+ (Vg9+ cells), flow staining [1]: 96.5%
Granzyme B; Luninex (supernatant) [1]: 8240
IFNγ; Luninex (supernatant) [1]: 2400
IL6; Luninex (supernatant) [1]: 511
TNFα; Luninex (supernatant) [1]: 157
Vg9 T cell %, flow staining [1]: 7%

Now from value to binder:

Max. Activity [3]: 2660 fold over background
B4: VG9B425 (antibody, human IgG1, kappa)
heavy: EVQLLESGGGLVKPGGSLRLSCSASGFTFSNYDMNWVRQAPGKGLEWVSSISSSSSYIYYADSVKGRFTISRDNAKNSLYLQMNSLRAEDTAVYHCARDVGVTTDYYYYGMDVWGQGTMVTVSS[human IgG1 constant region omitted here]
light: ETTLTQSPGTLSLSPGDRATLSCRASQSVASSYLAWYQQKPGQSPRLLIYGASSRATGIPDRFSGSGSGTDFTLTISRLEPEDFAVYYCQQYGSSPPYTFGQGTKVEIKRTVAAPSVFIFPPSDEQLKSGTASVVCLLNNFYPREAKVQWKVDNALQSGNSQESVTEQDSKDSTYSLSSTLTLSKADYEKHKVYACEVTHQGLSSPVTKSFNRGEC
notes: IgG1, kappa; also called antibody #30

CD25+ (Vg9+ cells), flow staining [4]: 36.5%
CD71+ (Vg9+ cells), flow staining [4]: 98.8%
Granzyme B, Luminex (supernatant) [4]: 4590
IFNγ, Luminex (supernatant) [4]: 2350
IL6, Luminex (supernatant) [4]: 621
TNFα, Luminex (supernatant) [4]: 789
Vg9 T cell %, flow staining [4]: 7.6%
B6: VG9B426 (antibody, human IgG1, kappa)
heavy: EVQLVQSGGGLVKPGGSLRLSCSASGFTFSNYDMNWVRQAPGKGLEWVSSISSSSSYIYYADSVKGRFTISRDNAKNSLYLQMNSLRAEDTAVYHCARDVGVTTDYYYYGMDVWGQGTMVTVSS[human IgG1 constant region omitted here]
light: ETTLTQSPGTLSLSPGDRATLSCRASQSVASSYLAWYQQKPGQSPRLLIYGASSRATGIPDRFSGSGSGTDFTLTISRLEPEDFAVYYCQQYGSSPPYTFGQGTKVEIKRTVAAPSVFIFPPSDEQLKSGTASVVCLLNNFYPREAKVQWKVDNALQSGNSQESVTEQDSKDSTYSLSSTLTLSKADYEKHKVYACEVTHQGLSSPVTKSFNRGEC

Max. Activity [5]: 3210 fold over background
B7: VG9B426 (antibody, human IgG1, kappa)
heavy: EVQLVQSGGGLVKPGGSLRLSCSASGFTFSNYDMNWVRQAPGKGLEWVSSISSSSSYIYYADSVKGRFTISRDNAKNSLYLQMNSLRAEDTAVYHCARDVGVTTDYYYYGMDVWGQGTMVTVSS[human IgG1 constant region omitted here]
light: ETTLTQSPGTLSLSPGDRATLSCRASQSVASSYLAWYQQKPGQSPRLLIYGASSRATGIPDRFSGSGSGTDFTLTISRLEPEDFAVYYCQQYGSSPPYTFGQGTKVEIKRTVAAPSVFIFPPSDEQLKSGTASVVCLLNNFYPREAKVQWKVDNALQSGNSQESVTEQDSKDSTYSLSSTLTLSKADYEKHKVYACEVTHQGLSSPVTKSFNRGEC
notes: IgG1, kappa

Max. Activity [3]: 2730 fold over background
B8: VG9B427 (antibody, human IgG1, kappa)
heavy: QVQLVESGGGLVKPGGSLRLSCSASGFTFSNYDMNWVRQAPGKGLEWVSSISSSSSYIYYADSVKGRFTISRDNAKNSLYLQMNSLRAEDTAVYHCARDVGVTTDYYYYGMDVWGQGTTVTVSS[human IgG1 constant region omitted here]
light: EIVMTQSPGTLSLSPGDRATLSCRASQSVASSYLAWYQQKPGQSPRLLIYGASSRATGIPDRFSGSGSGTDFTLTISRLEPEDFAVYYCQQYGSSPPYTFGQGTRLEIKRTVAAPSVFIFPPSDEQLKSGTASVVCLLNNFYPREAKVQWKVDNALQSGNSQESVTEQDSKDSTYSLSSTLTLSKADYEKHKVYACEVTHQGLSSPVTKSFNRGEC
notes: IgG1, kappa; also called antibody #26
